Hit rate of the full screen: of about 150,000 compounds, about 540 (0.36%) showed an effect of 50% or more. Some of the results follow.
Test system: Plasmodium falciparum
Assay: Primary screen in NF54 nanoGlo assay, in single point, at 2uM, 72h; a lower Z score goes with more inhibition
Type: functional, Erythrocyte
Details: timepoint 72 hour

**Q.** For `CNC(=O)[C@H]1CCCN(C(=O)Cc2ccc(S(N)(=O)=O)s2)C1`, which “% Inhibition” value is on record?
**A.** -6%

**Q.** What about the Z score of the same compound?
**A.** 1.09

**Q.** What does the source list for `CCn1nc(C)nc1NC(=O)CC1CC2CCC1C2` (stereo unspecified)?
**A.** % Inhibition: 2%; Z score: -0.45

**Q.** For `CC1=C(C)C[C@@H](C(=O)N(C)CCN(C)C(=O)c2ccc3[nH]c(=O)[nH]c3n2)CC1`, which “% Inhibition” value is on record?
**A.** 19%

**Q.** And the Z score?
**A.** -2.47

**Q.** Which results are given for `CC1CC(C(=O)NCc2ncc[nH]2)CO1` (stereo unspecified)?
**A.** % Inhibition: -2%; Z score: 0.22

**Q.** Which results are given for `CN(C)[C@H]1CN(Cc2ccccc2C(=O)O)C[C@@H]1C1CC1`?
**A.** % Inhibition: 1%; Z score: -0.14

**Q.** `CCCC1(CN[C@@H](CC)CO)CCN(C(=O)OC(C)(C)C)CC1` was tested. Which “% Inhibition” value did it give?
**A.** -17%

**Q.** What about the Z score of the same compound?
**A.** 1.96

**Q.** Which results are given for `O=C(CCC(=O)N1Cc2ccccc2Oc2ncccc21)Nc1c(F)c(F)c(F)c(F)c1F`?
**A.** % Inhibition: -2%; Z score: 0.21

**Q.** What does the source list for `C[C@H]1COCCN1C(=O)NC1CCCCC1`?
**A.** % Inhibition: -2%; Z score: 0.33

**Q.** What does the source list for `C[C@@H]1CN(C(=O)c2cccc(OC(F)F)c2)C[C@H](C)N1C`?
**A.** % Inhibition: -16%; Z score: 3.12

**Q.** What does the source list for `Cc1ccccc1N1C[C@@H](C(=O)Nc2ccc3ccccc3c2)CC1=O`?
**A.** % Inhibition: 4%; Z score: -0.59

**Q.** What does the source list for `CC(=O)N1CCN(C(=O)c2cccc(-c3ccco3)c2)C[C@@H](O)C1`?
**A.** % Inhibition: -2%; Z score: 0.31

**Q.** Which “% Inhibition” value does the source give for `CC(C)(C)OC(=O)N1CCCC(NC2CCCC3OCCC23)CC1` (stereo unspecified) here?
**A.** -7%

**Q.** And the Z score?
**A.** 0.76

**Q.** `CC1CCC2(CC1)OC[C@H](CNC(=O)NCC(F)F)O2` (stereo partly specified) was tested. Which “% Inhibition” value did it give?
**A.** -2%

**Q.** And the Z score?
**A.** 0.22

**Q.** Which “% Inhibition” value does the source give for `CC(C)COCn1cc(Br)c(=O)[nH]c1=O` here?
**A.** 35%

**Q.** What about the Z score of the same compound?
**A.** -5.09

**Q.** Which results are given for `Cc1cc(NC(=O)CCN2CCn3c(nnc3C(F)(F)F)C2)no1`?
**A.** % Inhibition: -13%; Z score: 1.29

**Q.** What does the source list for `O=C(COc1ccc(F)cc1)Nc1nnc(-c2ccc3c(c2)OCO3)o1`?
**A.** % Inhibition: -6%; Z score: 1.11

**Q.** Which “% Inhibition” value does the source give for `CC[C@H](C)c1ccc(/N=C(\NCc2ccncc2)NC(=O)c2cccc(Cl)c2)cc1` here?
**A.** -12%

**Q.** What about the Z score of the same compound?
**A.** 2.11

**Q.** Which results are given for `CC[C@H](C)NC(=O)C(=O)Nc1ccc(C)cc1C`?
**A.** % Inhibition: -8%; Z score: 1.02

**Q.** With `CCc1oc(C(=O)N[C@H]2CCCCNC2=O)cc1CN1CCCC1` as the compound, how does the “% Inhibition” value read?
**A.** -9%

**Q.** And the Z score?
**A.** 1.26

**Q.** How did the “% Inhibition” value turn out when `CCOC(=O)c1sc(NC2CCCC2)nc1C(F)(F)F` was run?
**A.** -47%

**Q.** What about the Z score of the same compound?
**A.** 5.51

**Q.** Which results are given for `CCCN(CC(=O)OC(C)(C)C)C(=O)[C@@H]1CCCCN1S(=O)(=O)CCC`?
**A.** % Inhibition: -15%; Z score: 1.58

**Q.** For `O=C(Nc1cccnc1C(F)(F)F)c1ccnn1CC1CCC1`, which “% Inhibition” value is on record?
**A.** -9%

**Q.** What about the Z score of the same compound?
**A.** 1.56

**Q.** `COCCS(=O)(=O)Nc1ncc(C(C)C)s1` was tested. Which “% Inhibition” value did it give?
**A.** 2%

**Q.** What about the Z score of the same compound?
**A.** -0.24

**Q.** For `Cn1cc([C@@H]2CCCN2c2ncnc3c2cnn3C)cn1`, which “% Inhibition” value is on record?
**A.** -8%

**Q.** And the Z score?
**A.** 1.27

**Q.** With `CCc1ccc(CNC(=O)c2ccc3nc(C4CCCCC4)oc3c2)nc1` as the compound, how does the “% Inhibition” value read?
**A.** -6%

**Q.** And the Z score?
**A.** 0.86

**Q.** Which “% Inhibition” value does the source give for `Clc1ccc([C@H](c2ccccc2)n2ccnc2-c2c[nH]cn2)cc1` here?
**A.** -18%

**Q.** And the Z score?
**A.** 1.94

**Q.** What does the source list for `O=C(N[C@H](c1ccccc1)c1nc2ccccc2[nH]1)c1ccco1`?
**A.** % Inhibition: 6%; Z score: -0.87

**Q.** How did the “% Inhibition” value turn out when `COc1nc(CNC(=O)C(C)C)nc(N2CCOCC2)n1` was run?
**A.** -5%

**Q.** And the Z score?
**A.** 0.59

**Q.** For `CC(C)(C)c1nccc(N2CCc3nc(N)sc3C2)n1`, which “% Inhibition” value is on record?
**A.** -13%

**Q.** And the Z score?
**A.** 1.73

**Q.** Which results are given for `CCNS(=O)(=O)c1cc(-c2nc(C)c(C(=O)N3CCCCC3)s2)cs1`?
**A.** % Inhibition: 2%; Z score: -0.32

**Q.** For `CCC(C)NC(=O)C1COC2(CCN(C(=O)CC(C)(C)C)CC2)N1C(=O)c1ccccc1` (stereo unspecified), which “% Inhibition” value is on record?
**A.** -9%

**Q.** And the Z score?
**A.** 1.33

**Q.** `COCC(=O)N1C[C@H](c2ncco2)C2(CCN(C(=O)Cc3ccccc3)CC2)C1` was tested. Which “% Inhibition” value did it give?
**A.** -11%

**Q.** What about the Z score of the same compound?
**A.** 1.66

**Q.** For `CCCn1cc(C(=O)N(C)c2cccnc2N2CCCC2)cn1`, which “% Inhibition” value is on record?
**A.** 7%

**Q.** What about the Z score of the same compound?
**A.** -0.77

**Q.** For `C#CCNC(=O)CNC(=O)C1CC1c1c(F)cccc1F` (stereo unspecified), which “% Inhibition” value is on record?
**A.** 11%

**Q.** And the Z score?
**A.** -1.47

**Q.** Which results are given for `Cc1ccc([C@H](C)NS(=O)(=O)c2cc(-c3nc(C(C)(C)C)cs3)cs2)c(C)c1`?
**A.** % Inhibition: -6%; Z score: 0.8

**Q.** Which “% Inhibition” value does the source give for `COc1ccccc1CCCN1CC(=O)N2CC[C@@H](O)C[C@H]2C1=O` here?
**A.** 7%

**Q.** What about the Z score of the same compound?
**A.** -0.96

**Q.** How did the “% Inhibition” value turn out when `NC(=O)CO[C@H]1CCC12CCN(C(=O)c1ccc3ccccc3n1)CC2` was run?
**A.** -6%

**Q.** What about the Z score of the same compound?
**A.** 0.81

**Q.** With `CN1CCN(C[C@H]2CCCN(C(=O)Cc3ccncc3)C2)CC1` as the compound, how does the “% Inhibition” value read?
**A.** -1%

**Q.** What about the Z score of the same compound?
**A.** 0.17

**Q.** Which “% Inhibition” value does the source give for `CCC(Oc1ccccc1C)C(=O)Nc1ccc(N2CCCC(C(N)=O)C2)nc1` (stereo unspecified) here?
**A.** -1%

**Q.** And the Z score?
**A.** 0.17

**Q.** Which “% Inhibition” value does the source give for `COc1ccc(CCNC(=O)[C@@H](Nc2ccc(C(F)(F)F)cc2Cl)C(C)C)cc1` here?
**A.** 0%

**Q.** What about the Z score of the same compound?
**A.** -0.07

**Q.** How did the “% Inhibition” value turn out when `CO[C@@H]1CCCCC[C@@H]1S(=O)(=O)NCCNc1ncccn1` was run?
**A.** -6%

**Q.** And the Z score?
**A.** 0.94

**Q.** What does the source list for `O=C(c1ccccc1F)N(Cc1ccc(-c2ccc(Cl)cc2)o1)[C@H]1CCS(=O)(=O)C1`?
**A.** % Inhibition: -13%; Z score: 1.69

**Q.** How did the “% Inhibition” value turn out when `Cc1c(C(=O)O)sc2ncnc(NCC3(Cn4ccnc4)CC3)c12` was run?
**A.** -3%

**Q.** And the Z score?
**A.** 0.66

— ChEMBL document CHEMBL4888484, “Replenishing the malaria drug discovery pipeline: Screening and hit evaluation of the MMV Hit Generation Library 1 (HGL1) against asexual blood stage Plasmodium falciparum ,using a nano luciferase reporter read-out” (2022)
